Counter-ions that a name gives are not always drawn. The list shows a part of the results. The data scatter; read single values as rough.
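Also: High-content imaging of ALDEFLUOR-stained cells with Hoechst-labelled nuclei in 384-well plates, triplicate wells, scored as Z-score against 0.1% DMSO vehicle, negative meaning fewer ALDHbr cells.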

In the experiment the test system is T84. The experiment can be described thus: ALDHbr (CSC) cell proportion score relative to DMSO vehicle (ratio to DMSO); breast (SUM159) / gastric (MKN45) / pancreatic (PANC1) / colon cancer lines; ALDHbr cells have high ALDH activity and are rich in cancer stem cells (CSC); higher = more CSC (ALDHbr) cells remaining. Conditions: 10 µM; 72 h.
On to `Cc1onc(-c2ccccc2Cl)c1C(=O)N[C@@H]1C(=O)N2[C@@H]1SC(C)(C)[C@@H]2C(=O)O` [Cloxacillin sodium salt], for which the ALDHbr worked out at 0.87. Then `CC(=O)N(CC(O)CO)c1c(I)c(C(=O)NCC(O)CO)c(I)c(C(=O)NCC(O)CO)c1I` (centres undefined) [Iohexol], with 1.12; and `Cc1ccc(NC(=O)c2ccc(CN3CCN(C)CC3)cc2)cc1Nc1nccc(-c2cccnc2)n1` [Imatinib], with 0.807; and `CCc1nc(N)nc(N)c1-c1ccc(Cl)cc1` [Pyrimethamine], with 0.472. Then `CNCC[C@@H](Oc1cccc2ccccc12)c1cccs1` [(R)-Duloxetine hydrochloride], with 0.547; and `COc1cnc(NS(=O)(=O)c2ccc(N)cc2)nc1` [Sulfameter], with 1.05. Regarding `CNCCC=C1c2ccccc2CCc2ccccc21` [Nortriptyline hydrochloride], the ALDHbr stood at 0.572. `CN(C)CCCN1c2ccccc2CCc2ccccc21` [Imipramine hydrochloride]: the ALDHbr was 0.86. Take `O=C(O)c1ccccc1Nc1cccc(C(F)(F)F)c1` [Flufenamic acid]: the ALDHbr was found to be 0.955.

The values are drawn from the supplement of paper PMC11880418.
